Read counts are not given, so values of variants with three or more changes are uncertain.

B1: LINE1-mini (parent)
chain: GGCAGAGCUCAACACAGCGUGGCAAAGUGGCUGUGGCUAGACUGCC

Variants of B1 are the subject of this data set. As to the kind of experiment: self-cleavage, relative activity (ratio to wild type); higher = more cleavage; in vitro, sequencing; the parent is a self-cleaving ribozyme.
Regarding GGCAGAGCUAAACACAGCGUGGCAAAGUGGCUUUGGCUAGAGUGCC [C10A G33U C42G], the self-cleavage stood at 0. As to GGCAGAGCUAAACACAGCGUGGCAAAGUGACUGUGGCUACACUGCC [C10A G30A G40C], the self-cleavage is 0.57. Consider GGCAGAGCUAAACACAGCGUGGCAAAGGGGCUGUGGCUAGACUAUC [C10A U28G G44A C45U], for which the self-cleavage came to 0. For the variant GGCAGAGCUGAACACAGCGUGGCAACGUGGCUGUCGCUAGACUGCC [C10G A26C G35C], the self-cleavage was 0.03. As to GGCAGAGCUGAACACAGAGUAGCAAAGUGGCUGUGGAUAGACUGCC [C10G C18A G21A C37A], the self-cleavage was found to be 0.02. With GGCAGAGCUGAACACAGCGUGGAAAAGUGGCUGUGGUUAGACUGCC [C10G C23A C37U], the self-cleavage came out at 0.02. As for GGCAGAGCUGAACACAGCGUGGCAGAGUGGCUGCGACUAGACUGCC [C10G A25G U34C G36A], the self-cleavage worked out at 0.01. For GGCAGAGCUGAACAAAGCGUGGCCAAUUUGCUGUGGCUAGACUGGC [C10G C15A A24C G27U G29U C45G], the self-cleavage turned out to be 0.01.

For GGCAGAGCUGAUCACAGCGAGGCAAAGUCUCUCCGGCUCGACUGCC [C10G A12U U20A G29C G30U G33C U34C A39C], the self-cleavage turned out to be 0. As for GGCAGAGCUGAACAUAGGGUGGCAAAGUGGCUGUGGCUAGACCGCC [C10G C15U C18G U43C], the self-cleavage amounted to 0.01.

Regarding GGCAGAGCUGAACAUAGCGUGGCAACGUGGCUGUGGUUAGACUGCC [C10G C15U A26C C37U], the self-cleavage amounted to 0.02. As to GGCAGAGCUAAACACAGCGUGGCAAAUUGGCUGUUGGUAGACUGCC [C10A G27U G35U C37G], the self-cleavage is 0.03.

In the case of GGCAGAGCUGAACACAGGGUGGCAAAGUGGUUGUGGCUAGACUGCC [C10G C18G C31U], the self-cleavage was 0.02. GGCAGAGCUGAAGACAGCGUGGAAAAGUGGCUGUGGCUAGACUGCC [C10G C13G C23A]: the self-cleavage turned out to be 0.03. Consider GGCAGAGCUGAACACAGAGUGGCAAAGUGGCUGUGGAUAGAUAGCC [C10G C18A C37A C42U U43A], for which the self-cleavage was found to be 0. Regarding GGCAGAGCUAAACACAGCGCGGCAAAGUGGAUGUGGCUAGACUGCC [C10A U20C C31A], the self-cleavage was 0.03. With GGCAGAGCUAAACACAGCGGGCCAAAGUGGCUGUGGCUAGAGUGCC [C10A U20G G22C C42G], the self-cleavage turned out to be 0.02. Consider GGCAGAGCUAAACACAGCGUGGCAAAGUUGCGGUUGCUAGAAUGCC [C10A G29U U32G G35U C42A], for which the self-cleavage was found to be 0.02. Consider GGCAGAGCUAAACACAGCGUGGCAAAAUGGCUGUCGCUAGACUGCC [C10A G27A G35C], for which the self-cleavage was determined as 0.02.

For GGCAGAGCUAAACACAGCGUGGCAAAGUGGCUGUGCCUAGACUACC [C10A G36C G44A], the self-cleavage stood at 0.04. Take GGCAGAGCUGAACACAGUGUGGCAAAGUGGCUGUGGCUUGACUGCC [C10G C18U A39U]: the self-cleavage was determined as 1.05. As for GGCAGAGCUGAACAGAGCGGGGCUAAGUGGCUGUGGCUAGACUGCC [C10G C15G U20G A24U], the self-cleavage came out at 0.01. As to GGCAGAGCUAAACACAGCGUGGCAAAGUGGCUGUUGCUAUACUGCU [C10A G35U G40U C46U], the self-cleavage is 0.01.

For the variant GGCAGAGCUAAACACAGCGUGUCAAAGAGGCUAUGGCUAGACUGCA [C10A G22U U28A G33A C46A], the self-cleavage was 0.02. Turning to GGCAGAGCUGAUCACAGCGUGGCAAUGUGACUGUGGCUAGUCUGCC [C10G A12U A26U G30A A41U], the self-cleavage was 0. GGCAGAGCUAAACACAGCGUGGCAAAGUGGCUGUGGCUACACUGCU [C10A G40C C46U]: the self-cleavage came to 0.01. Next, GGCAGAGCUAAACACAGCGAUGCAAAGUGGCUGUGGCUAGACUGCC [C10A U20A G21U]: 0.01; GGCAGAGCUAAACACAGCGCGGCAAAGUAGCUGUGUUUAGACUGCC [C10A U20C G29A G36U C37U]: 0. For GGCAGAGCUAAACACAGCGUGGCAAACUGGCUGUGUCUAGACUGCC [C10A G27C G36U], the self-cleavage is 0.01. As to GGCAGAGCUGAACAGAGCGUGGCAAGGUGGCUGUGGCUAGACUGCC [C10G C15G A26G], the self-cleavage came to 0.02.

With GGCAGAGCUAAACACAGCGUGGCAAAGUGGCUGUGGCUAGACGGUC [C10A U43G C45U], the self-cleavage is 0.01.

For GGCAGAGCUGAACAUAGCGAGGCAAAGUGGCUGUGGCUAGACUGCA [C10G C15U U20A C46A], the self-cleavage was 0.02.

Take GGCAGAGCUGAACUCAGCGUGGUAAAGCGGCUGUGACUAGACUGUC [C10G A14U C23U U28C G36A C45U]: the self-cleavage stood at 0.01. On to GGCAGAGCUGAACCCAGCGUGGCAAAGUCGCUGAGGCUAGACUGCC [C10G A14C G29C U34A], for which the self-cleavage amounted to 0.04.

On to GGCAGAGCUGAACACAGCGUGGCAACGUGGCUGAGGCUAGACUGAC [C10G A26C U34A C45A], for which the self-cleavage amounted to 0.02. As for GGCAGAGCUAAACACAGCGUGGCAAAGUGGCUGUGGCCAGAUUGCC [C10A U38C C42U], the self-cleavage is 0.01. With GGCAGAGCUGAACACUGCGUGGCCAAGUGGCUUUGUCAAGACUGCC [C10G A16U A24C G33U G36U U38A], the self-cleavage was determined as 0.02.

With GGCAGAGCUGAAAACAGCGUGGAAAAGUGGCUGUAGCUAGACUGCC [C10G C13A C23A G35A], the self-cleavage is 0.02.

On to GGCAGAGCUGAAUCCAGCGUGGCAAAGUGGCGGUGGCAACACUGCC [C10G C13U A14C U32G U38A G40C], for which the self-cleavage turned out to be 0.

As to GGCAGAGCUGAACUCAGCGUGGCAAGGUGGCUGUGGCUCGACUGCC [C10G A14U A26G A39C], the self-cleavage is 0.01. In the case of GGCAGAGCUAAACACAGCGUGGCAAAGUGGCUAUAGCUAGUCUGCC [C10A G33A G35A A41U] it was 0.02; in that of GGCAGAGCUGAAAAAAGCGUGGCAACGUGGCUGUGGCUAGACUCCC [C10G C13A C15A A26C G44C], 0.01; in that of GGCAGAGCUAAACACAGCGUGGCAAAGUGGCUGUGGCGAGAAUGCC [C10A U38G C42A], 0.01. As for GGCAGAGCUAAACACAGCGUGGCAAAGUGGCUGUGAUUAGACGUCC [C10A G36A C37U U43G G44U], the self-cleavage stood at 0.01. On to GGCAGAGCUGAACAGAGCGUGGCAAAGUGGUUUUGGCUAGACUGCC [C10G C15G C31U G33U], for which the self-cleavage turned out to be 0.02. In the case of GGCAGAGCUAAACACAGCGCGGCAAAGUGGCUGUGGCUAGACCGCC [C10A U20C U43C] it was 0.01. Regarding GGCAGAGCUAAACACAGCGUGGCAAAGCGGCUGUGGCUAGGCUGCC [C10A U28C A41G], the self-cleavage was 0.05. With GGCAGAGCUGAACCCAGCGUGGCAAAGUGGCUGUGACUAGCCUGCC [C10G A14C G36A A41C], the self-cleavage was determined as 0. For GGCAGAGCUGAAGACAGCGUGGCAAAGUGGCUGUGGCUAGACUGCG [C10G C13G C46G], the self-cleavage came out at 0.03. As for GGCAGAGCUGAACACAGAGUGGCAAAGUGGAUGUGGCUAGACUGCC [C10G C18A C31A], the self-cleavage was found to be 0.11. With GGCAGAGCUAAACACAGCGUGGCAAAGCGGCUGUGGCUAUACUGCC [C10A U28C G40U], the self-cleavage was 0.01. For the variant GGCAGAGCUGAAAACAGCGUGACAAUGUGGCUGUGGCUAGACUGCC [C10G C13A G22A A26U], the self-cleavage was 0.03. Take GGCAGAGCUGAACACAGUGUGGCAAAGUGGCUGUGGCUAUACUGCC [C10G C18U G40U]: the self-cleavage worked out at 0.01. Next, GGCAGAGCUGAACCCAGCGUGGCAAAGUGGCUGUUGCUAGACUUCC [C10G A14C G35U G44U]: 0.01; GGCAGAGCUGAACUCAGCGUGGCAAAGGGGCUGUUGCUAGACUGCC [C10G A14U U28G G35U]: 0.03.

In the case of GGCAGAGCUAAACACAGCGUGGCAAAGUGGCUGUGGCUAGACUUCA [C10A G44U C46A], the self-cleavage was 0.03.
